# Screen size: about 110,000 compounds; about 40 (0.04%) were called active. The inconclusive results got no clear call from the source; some entries with a clear call stand among them for comparison. Calls follow the shape of the dose curve; as a rule, active = well fitted curve in the direction sought with a large enough effect in the signal ratio (not every such curve was filed as active); inconclusive = small, poorly fitted or top-dose-only effect, or a change in a side signal; inactive = flat fitted curve, though single readings scatter; the % refers to the signal ratio. Where the call is inconclusive, the potency comes from a doubtful curve fit.
# Assay: IkB Signaling;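 as to IkBa stabilization activation: 0% = basal untreated cells and 100% = reference inhibitor full response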
# Conditions: ABC-DLBCL IkBa-CBG/CBR dual luciferase ratio (green luciferase fused to IkBa over red control in OCI-Ly3 lymphoma cells), 4 h; IkBa stabilization activation: at 57.1 µM (top of the series), scaled: untreated 0%, proteasome inhibitor 100% unless noted
# In short: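 Luminescence ratio of IκBα-fused green versus native red beetle luciferase in OCI-Ly3 cells, 4 h post-doxycycline with compound; red signal alone, scaled from basal (0%) to zero light (-100%), flagged nonspecific or cytotoxic effects.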
# Potency is read from the fitted curve at half-maximal effect.
SMILES,IkBa stabilization activation,Potency
COc1ncc2nc(-c3cn(C)c4ccccc34)c(=O)n(C[C@H]3CCCO3)c2n1,"inactive: -0.101% [at 11.4 µM, scaled: untreated 0%, proteasome inhibitor 100%]",–
COc1cccc(NC(=O)c2oc3ccc(S(=O)(=O)N4CCOCC4)cc3c2C)c1,inconclusive: 0.713% [signal inhibitor],–
O=C(O)[C@@H]1CCCN[C@H]1C(=O)O,inactive,–
CCOC(=O)c1[nH]c(C)c(C(=O)Nc2ccc(F)cc2)c1C,–,"inconclusive: 39.8 µM [signal activator, single point]"
CC(=O)Nc1c(C(=O)Nc2ccccc2F)oc2ccccc12,inconclusive: 2.43% [signal inhibitor],–
CCc1ccc(Nc2nc3c(S(=O)(=O)c4cccc(Cl)c4)nnn3c3ccsc23)cc1,inactive,–
CC(C)CNC(=O)NC1C(NC(=O)NCC(C)C)N(C)C(=O)N1C (stereo not given),–,"inconclusive: 6.31 µM [signal inhibitor, partial curve]"
COc1cc(-c2nc3cnccn3c2Nc2ccc(C(C)C)cc2)ccc1O,inconclusive: -0.226% [signal inhibitor],–
O=C(CSc1n[nH]c(-c2ccccc2)n1)NCCc1ccccc1,inactive,–
COc1ccc(OCc2nnc3n2N=C(c2ccc(OC)cc2)CS3)cc1,inconclusive: 15.9% [signal inhibitor],–
Cc1ccccc1NC(=O)CSc1nnc(-c2cccc(Cl)c2)o1,inconclusive: 7.38% [signal inhibitor],–
COc1ccc(CNC(=O)C(C)n2nc(C)c3sc4ccccc4c3c2=O)cc1OC (stereo not given),inconclusive: 0.248% [signal inhibitor],–
Cc1cc(C(=O)CSCCCn2c(=O)[nH]c3ccccc32)c(C)n1C,inactive,–
Cc1csc2nc(-c3cccc(NC(=O)c4ccccc4F)c3)cn12,inconclusive: -1.52% [signal inhibitor],–
CC(=O)c1c(C)oc2ccc(N(C(=O)c3ccncc3)S(=O)(=O)c3ccc(F)cc3C)cc12,inconclusive: -0.437% [signal inhibitor],–
Cc1cccc(C(=O)Nc2sc3c(c2C(=O)O)CCCC3)c1,–,"inconclusive: 15.8 µM [signal inhibitor, partial curve]"
Cc1ccc(S(=O)(=O)C(C#N)c2nc3ccccc3nc2N2CC(C)OC(C)C2)cc1C (stereo not given),inactive,–
CCCOc1ccc(CNC(=O)Cn2c(=O)oc3ccccc32)cc1,inconclusive: -0.0191% [signal inhibitor],–
COc1cccc(CNC(=O)c2cccc(NC(=O)c3nsc4ccccc34)c2)c1,inconclusive: 1.13% [signal inhibitor],–
CN1CCc2cc(NC(=O)Nc3cccnc3)ccc21,inactive,–
CCOc1ccc(OCC)c(NC(=O)CSc2nc3c(c(=O)n(C)c(=O)n3C)n2C(C)C)c1,inconclusive: 2.84% [signal inhibitor],–
Cc1ccc(CNC(=O)c2cnn(-c3ccc(F)cc3F)c2C2CCN(C(=O)OC(C)(C)C)CC2)cc1,inconclusive: -0.293% [signal inhibitor],–

SMILES,IkBa stabilization activation,Potency
O=C1CC(O)(C(F)F)Oc2ccc3ccccc3c21 (stereo not given),inactive,–
COc1ccc(NS(=O)(=O)c2ccc3c(c2)n(C)c(=O)c(=O)n3C)cc1Cl,inconclusive: 2.54% [signal inhibitor],–
CC[C@@H]1CC(=O)N(SC[C@H](N)C(=O)O)C1=O,"inactive: 0.554% [at 11.4 µM, scaled: untreated 0%, proteasome inhibitor 100%]",–
O=C(c1ccco1)N(CCCN1CCOCC1)c1nc(-c2ccc(F)cc2)cs1,inconclusive: 3.37% [signal inhibitor],–
Cc1cc(C(=O)Nc2cccnc2)on1,inactive,–
COc1ccc(-c2nc(SCC(=O)NCC3CCCO3)c(-c3ccc(Cl)cc3)[nH]2)cc1 (stereo not given),inconclusive: 7.85% [signal inhibitor],–
Cc1c(Cl)ccc2sc(NC(=O)c3ccc(S(=O)(=O)N4CCCC4)cc3)nc12,inconclusive: 1.27% [signal inhibitor],–
O=C(NC1CCCCC1)Sc1ccc(Cl)cc1,inconclusive: 5.56% [signal activator],–
CCCNC(=O)CCn1nc(-c2ccc(C)cc2)c2ccccc2c1=O,inconclusive: 0.939% [signal inhibitor],–
Cc1nn(Cc2ccccc2)c(C)c1NC(=O)c1cc2nc(-c3ccco3)cc(C(F)(F)F)n2n1,inconclusive: 1.94% [signal inhibitor],–
c1ccc(CSc2nnc(-c3ccco3)n2Cc2ccccc2)cc1,inconclusive: 2.58% [signal inhibitor],–
COc1cc(C(=O)Nc2cccc(OCc3cc(=O)n4c(C)csc4n3)c2)cc(OC)c1OC,inconclusive: 4.37% [signal inhibitor],–
CC(C)=CC1C(C(=O)Nc2ccc(Br)cn2)C1(C)C (stereo not given),inactive,–
CCOc1ccc(-n2c(SCc3nc(-c4cccs4)no3)nnc2-c2ccncc2)cc1,inactive,–
COc1ccc(S(=O)(=O)N2CCC(c3nnc(-c4ccccc4C)o3)CC2)c(OC)c1,inconclusive: 5.41% [signal inhibitor],–
Cc1noc2ncnc(N3CCCC(C(=O)NCCC(C)C)C3)c12 (stereo not given),inconclusive: -3.47% [signal inhibitor],–
Cc1ccc(S(=O)(=O)c2c(Nc3ccccc3)sc(C(=O)c3ccc4c(c3)OCO4)c2N)cc1,inconclusive: -1.22% [signal inhibitor],–
Nc1c(S(=O)(=O)O)cc(S(=O)(=O)O)c2ccc(N=Nc3ccccc3)c(O)c12,"inactive: 5.42% [at 11.4 µM, scaled: untreated 0%, proteasome inhibitor 100%]",–
CCCCN(CCCC)C(=O)c1cc2c(=O)n3ccccc3nc2s1,inconclusive: 0.906% [signal inhibitor],–
Cc1sc(NC(=O)CSc2nc(N)n(CC(=O)c3ccccc3)n2)c(C#N)c1C,inactive,–
Cc1cccc(N2CCN(S(=O)(=O)c3ccc(F)c(C(=O)Nc4cccc(Cl)c4C)c3)CC2C)c1 (stereo not given),inconclusive: -0.278% [signal inhibitor],–
O=S(=O)(Nc1ccc(-c2ccc(N3CCCCCC3)nn2)cc1)c1ccc(C(F)(F)F)cc1,inconclusive: 8.23% [signal inhibitor],–

SMILES,IkBa stabilization activation,Potency
O=C(NCCSc1c(-c2ccc(Cl)cc2)[nH]c2ccccc12)c1ccc(S(=O)(=O)N2CCOCC2)cc1,inconclusive: 1.94% [signal inhibitor],–
CCN(CCNC(=O)C1CCCN(Cc2nc(-c3ccc(OC)cc3)oc2C)C1)c1ccccc1 (stereo not given),inconclusive: -0.292% [signal inhibitor],–
Cc1ccc(-n2nc3c(=O)n(CCCC(=O)NCc4ccc(F)cc4)nc(C)c3c2C)cc1,inconclusive: 6.27% [signal inhibitor],–
Cc1cc(C(F)(F)F)c2c(N)c(C(=O)Nc3c(Cl)cccc3Cl)sc2n1,inconclusive: 1.55% [signal inhibitor],–
CCn1c(N2CCC(Cc3ccccc3)CC2)nc2c1c(=O)[nH]c(=O)n2C,inconclusive: -3.29% [signal inhibitor],–
CCNc1ncc2nc(-c3ccc(OC)cc3)c(=O)n(CCOC)c2n1,"inactive: 0.0142% [at 11.4 µM, scaled: untreated 0%, proteasome inhibitor 100%]",–
c1ccc(-c2cc(-c3nc(-c4ccccn4)no3)c3ccccc3n2)cc1,inactive,–
CC(C)c1ccc(NC(=O)c2cc3c(=O)oc4ccccc4c3s2)cc1,inactive,–
CCCC12CN3CC(C)(CN(C1)C3c1ccc(CC)cc1)C2=O (stereo not given),inconclusive: 2.11% [signal inhibitor],–
CCOC(=O)c1ccc2ncc(C(=O)OCC)c(NCCc3ccc(OC)c(OC)c3)c2c1,inconclusive: 7% [signal inhibitor],–
COCCn1c(=O)c(-c2ccc(Cl)cc2)nc2cnc(Oc3cccc(Cl)c3)nc21,"inactive: 7.08% [at 11.4 µM, scaled: untreated 0%, proteasome inhibitor 100%]",–
CCN1CCN(C(=O)Cn2ncc3c4ccccc4n(Cc4ccccc4F)c3c2=O)CC1,inconclusive: 0.187% [signal inhibitor],–
Cc1cccc(N2CCN(C(c3ccc(F)cc3)c3nnc(-c4ccccc4)o3)CC2)c1C (stereo not given),inconclusive: 4.55% [signal inhibitor],–
COc1ccc(N2CCN(C(CNC(=O)C(=O)NCc3ccc(C)cc3)c3cccnc3)CC2)cc1 (stereo not given),inconclusive: 0.547% [signal inhibitor],–
CC(C)Oc1ccc(CNC(=O)C2CCN(C(=O)N3CCOc4ccc(Cl)cc43)CC2)cc1,inconclusive: 1.53% [signal inhibitor],–
CCOC(=O)C1(Nc2nccs2)Sc2ccccc2NC1=O (stereo not given),inactive,–
Cn1c(=O)n(CCCOc2ccc(Cl)cc2)c2ccccc21,inconclusive: -1.61% [signal inhibitor],–
O=C(Cn1c(=O)n(-c2ccc(Cl)cc2)c(=O)c2sc3ccccc3c21)NC1CCCCC1,inconclusive: 16.6% [signal inhibitor],–
NC(Cc1ccccc1)=NCC(=O)O,"inactive: -0.459% [at 11.4 µM, scaled: untreated 0%, proteasome inhibitor 100%]",–
COc1cccc(NC(=O)C(=O)NCC(c2ccc3c(c2)OCO3)N2CCOCC2)c1 (stereo not given),–,"inconclusive: 31.6 µM [signal inhibitor, partial curve]"
O=c1c(-c2ccccc2)nc2cnc(Oc3cccc(Cl)c3)nc2n1C1CC1,"inactive: 2.18% [at 11.4 µM, scaled: untreated 0%, proteasome inhibitor 100%]",–
